Whole data set: some 110,000 compounds, median “z-score” near -0.1, cut for the highest 2% near 2. Some of the results follow.

The assay addresses Metabotropic glutamate receptor 8 (Rattus norvegicus) (UniProt P70579). In words: mGluR8 Gi/Go-coupled signaling modulation – cell-based, rat, thallium flux, HTS, primary screen (AID 488969). The note with it: HEK293 rat mGluR8, GIRK (G protein-gated inwardly rectifying potassium channel) thallium flux, FluoZin2; at 10 µM; stronger effect = higher value; submaximal glutamate (EC20) added with thallium.
Chain of UniProt P70579 (P70579 whole entry, looked up): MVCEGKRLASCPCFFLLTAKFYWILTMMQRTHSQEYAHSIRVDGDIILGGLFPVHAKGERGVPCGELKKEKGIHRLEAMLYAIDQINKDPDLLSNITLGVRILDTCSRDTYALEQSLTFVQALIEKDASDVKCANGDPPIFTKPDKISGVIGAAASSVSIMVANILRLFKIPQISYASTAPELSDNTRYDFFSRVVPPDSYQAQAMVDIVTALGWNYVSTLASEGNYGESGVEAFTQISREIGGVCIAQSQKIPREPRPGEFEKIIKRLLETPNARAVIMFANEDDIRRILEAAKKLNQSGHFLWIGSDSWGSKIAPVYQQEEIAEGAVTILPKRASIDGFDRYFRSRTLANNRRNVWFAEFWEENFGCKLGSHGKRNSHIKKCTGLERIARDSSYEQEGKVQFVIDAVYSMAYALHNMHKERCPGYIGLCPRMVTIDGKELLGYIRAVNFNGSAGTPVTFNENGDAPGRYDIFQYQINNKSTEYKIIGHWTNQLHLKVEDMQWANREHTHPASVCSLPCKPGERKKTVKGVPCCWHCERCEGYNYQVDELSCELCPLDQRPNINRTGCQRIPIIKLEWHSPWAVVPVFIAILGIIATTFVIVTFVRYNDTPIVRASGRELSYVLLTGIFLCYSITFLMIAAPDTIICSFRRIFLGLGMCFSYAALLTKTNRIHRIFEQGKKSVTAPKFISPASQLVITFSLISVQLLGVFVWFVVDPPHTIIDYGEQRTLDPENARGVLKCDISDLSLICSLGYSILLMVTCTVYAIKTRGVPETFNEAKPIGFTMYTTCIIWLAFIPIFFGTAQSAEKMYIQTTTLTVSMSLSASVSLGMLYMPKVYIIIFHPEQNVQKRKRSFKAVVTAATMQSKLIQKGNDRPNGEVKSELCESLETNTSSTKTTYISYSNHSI
As to `CCCOc1ccc(C(=O)NCC(c2cccs2)N(C)C)cc1OC` (configuration not stated), the z-score is -0.44. The compound `Nc1ccccc1NC(=O)c1ccccc1` had a z-score of -0.999. Next, `COC(=O)c1sccc1-c1ccc(C(=O)Nc2ccccc2)o1`: -0.28. `O=C(CNc1ccc(Br)cc1)c1ccccc1` registered a z-score of 0.0045.

Compound `Cc1ccc(-c2nnc(SCC(=O)Nc3ccc(S(=O)(=O)N4CCCCCC4)cc3)o2)cc1` gave a z-score of 0.22. `Cn1c(=N)c(S(=O)(=O)c2ccccc2)cc2c(=O)n3ccccc3nc21` came in with a z-score of -0.781. `COc1cccc(Nc2nc(-c3sc(NC(=O)CC(C)C)nc3C)cs2)c1` registered a z-score of -0.392. As for `Cc1cc(C)cc(C(=O)NCCn2cc(SCC(=O)N3CCOCC3)c3ccccc32)c1`, the figure is 0.0769; as for `CCOC(=O)c1c(NC(=O)CN2C(=O)NC3(CCC(C)CC3)C2=O)sc(C)c1-c1ccc(C)cc1` (configuration not stated), -0.156; as for `O=C(NC1CCS(=O)(=O)C1)c1ccc(S(=O)(=O)NCC2CCCO2)cc1` (configuration not stated), -0.226. `COc1ccc(C(=O)/C=C/Nc2ccc([N+](=O)[O-])cc2)cc1` had a z-score of 0.479. Next, `CN1CCN(/C=N/c2c(C#N)cnn2-c2ccccc2)CC1`: 0.237; `COc1cc2c(cc1NS(=O)(=O)N1CCCC1)oc1ccccc12`: -0.51; `O=C(NC(=S)NCCN1CCOCC1)c1cccc(Cl)c1`: -0.0174. The compound `COC(=O)C1CCN(C(=O)C(C)Oc2ccc(Cl)cc2Cl)CC1` (configuration not stated) displayed a z-score of 0.0998.

On to `COc1ccc(/C=N/n2c(N)c(S(=O)(=O)c3cccs3)c3nc4ccccc4nc32)cc1OC`, for which the z-score turned out to be 0.265. `Cc1cccnc1-n1c(CCN2C(=O)c3ccccc3C2=O)nc2ccccc2c1=O` gave a z-score of -0.234. `COc1cccc(CNCCN2CCOCC2)c1OC`: the z-score was -0.124.

Compound `COc1cccc(C(=O)N/N=C(/c2ccccc2)c2ccccn2)c1` yielded a z-score of -0.131. As for `CCCCCCCCSc1n[nH]c(N)n1`, the figure is 0.0327. As for `CCOC(=O)c1c(N)sc(C(O)(C(F)(F)F)C(F)(F)F)c1-c1ccccc1`, the z-score was -0.158. `O=C(C1CCC1)N1CCc2cc(S(=O)(=O)NC3CCCC3)ccc21` displayed a z-score of 0.055.

`N#C/C(=C\c1ccc(N2CCOCC2)o1)C(=O)N1CCOCC1` had a z-score of -0.912. Next, `Cc1nn(C)cc1CNC(=O)c1cnn2c(C(F)F)cc(C3CC3)nc12`: 0.198; `O=C(CSc1ccccn1)N/N=C/c1cccc([N+](=O)[O-])c1`: 0.531. Next, `C=CCn1c(-c2ccoc2)n[nH]c1=S`: -0.0638; `Cc1cc(C(=O)Nc2c(C)nn(Cc3ccccc3)c2C)on1`: -0.666.

`CC(=O)c1ccc(NC(=O)CN2C(=O)COc3ccc(Cl)cc32)cc1` showed a z-score of -0.5. `O=C(COC(=O)Cc1ccc(S(=O)(=O)N2CCOCC2)s1)Nc1ccc2c(c1)OCO2` displayed a z-score of -0.785.

Turning to `COc1ccc(NC(=O)C(CCSC)N2C(=O)c3ccccc3C2=O)cc1` (configuration not stated), the z-score is 0.508. Next, `Cc1ccc(-c2cn(-c3ccccc3)c(SCC(N)=O)n2)cc1C`: -1.06; `COc1cccc(C(=O)Nc2ccc(N3CCN(S(C)(=O)=O)CC3)cc2)c1`: -0.135; `O=C(N/N=C/c1cccs1)/C(=C/c1ccccc1)NC(=O)c1ccccc1`: 0.104.

Take `CCSc1nnc2n1C(C)(C)Cc1ccccc1-2`: the z-score was -0.208. Take `O=C(Cc1ccc(F)cc1)Nc1c2c(nn1-c1cccc(Cl)c1)CS(=O)C2` (configuration not stated): the z-score is 0.147. Regarding `Cc1ccc(NC(=O)COC(=O)c2ccc3c(c2)OCO3)cc1S(=O)(=O)N1CCCCC1`, the z-score is -0.401. As to `O=C(O)CN1C(=O)C2C3CC(C2C1=O)C1C(c2ccccc2)c2sc(=O)[nH]c2SC31` (configuration not stated), the z-score is -0.358.

`CCCc1cc(=O)[nH]c(SCC(=O)Nc2nonc2N)n1` came in with a z-score of -0.434.

On to `Cc1nn(C)c(C)c1NC(=O)CSc1nc(Cc2ccccc2)nc2c1cnn2-c1ccccc1`, for which the z-score stood at 0.55. Consider `CCC1(C)Cc2c(sc3nc4n(c(=O)c23)CCCS4)CO1` (configuration not stated), for which the z-score is -0.166. Next, `CCCN(CCC)c1ccc(CC(=O)NC(C)Cc2ccccc2)cc1` (configuration not stated): -0.226. Compound `Cc1nnc(SCC(=O)NCc2ccccc2Cl)n(N)c1=O` gave a z-score of -0.182.

Regarding `CC1CCCCC1NC(=O)CCCc1nc2ccccc2c(=O)[nH]1` (configuration not stated), the z-score was 0.335. Consider `Cc1cc2nc(CCN(C(=S)NCC(C)C)C3CCCC3)[nH]c2cc1C`, for which the z-score was determined as 0.351.

For `CCn1c2ccccc2c2cc(NC(=O)c3cccc(OC)c3)ccc21`, the z-score was -1.39. With `COc1ccc(CNC(=O)c2cc(-c3cccs3)on2)cc1`, the z-score amounted to 0.49. In turn, `Cc1ccc(NC(=O)C2CCCNC2=O)nc1` (configuration not stated) yielded a z-score of -0.231.

`Cc1ccsc1/C=N/NC(=O)Cn1cnc2ccccc21` had a z-score of 0.0545. `Cc1cc(=O)oc(C)c1C(=O)N[C@@H]1CCCCNC1=O` returned a z-score of 0.148. In the case of `COc1cc(-c2nnc(SCC(=O)c3ccc(C)cc3)o2)cc(OC)c1OC`, the z-score was -0.131. `CCCn1nnc(NC(=O)c2ccc(OCC)c(Cl)c2)n1` registered a z-score of -0.225. As for `COc1ccc(CC(C#N)(CO)c2nc3ccccc3[nH]2)cc1` (configuration not stated), the z-score is -0.102. As for `CCCC(=O)Nn1cnc2c(c1=O)C1(CCCC1)Cc1ccccc1-2`, the figure is -0.338; as for `CC1CCCCN1S(=O)(=O)c1ccc(S(=O)(=O)NCCc2ccncc2)cc1` (configuration not stated), -0.0388; as for `O=C(Nc1ccccc1-c1nc2ccccc2s1)c1ccc(Br)o1`, -0.0136.

Take `O=C(CCl)NCCCCCCCCCNC(=O)CCl`: the z-score was determined as 0.0833. `CCN1CCN(CCCNC(=O)C(NC(=O)C2CCC(C)CC2)C(C)C)CC1` (configuration not stated) displayed a z-score of -0.0333. `CCN(CC)S(=O)(=O)c1ccc(-c2nnc(SCC(=O)Nc3nnc(C)s3)n2CC)cc1`: the z-score is -0.472. As for `COc1ccc(Br)cc1S(=O)(=O)N1CC(C)OC(C)C1` (configuration not stated), the figure is -0.685; as for `COC(/C=C/Nc1ccc(OC)cc1)=C(C#N)C#N`, -0.0812; as for `CCn1c(SCC(=O)N2c3ccccc3CC2C)nnc1-c1ccco1` (configuration not stated), -0.737. `CCCC(=O)OCC(=O)Nc1cc(C(C)(C)C)nn1-c1ccccc1` registered a z-score of 0.676.

Turning to `O=C(Nc1cccnc1)Nc1ccc(Br)cc1Cl`, the z-score is -0.0574. `CCN1CCCC1CNC(=O)CS(=O)(=O)Cc1nc(-c2ccccc2C)oc1C` (configuration not stated) came in with a z-score of 1.21. With `NCCCSC1=NCCCN1`, the z-score was 0.28.

As to `O=C(COC(=O)c1ccc2c(c1)C(=O)N(Cc1ccncc1)C2=O)Nc1ccccc1[N+](=O)[O-]`, the z-score is -0.521.

On to `CCC(=O)Nc1ccc(C(=O)NNC(=O)COc2cc(C)ccc2C)cc1`, for which the z-score was 0.058. Turning to `CSc1nc(C)cc(C)c1C(N)=O`, the z-score was -0.0617. `O=C(Cc1cccc2ccccc12)NCC1CCCO1` (configuration not stated) had a z-score of 0.0236. Next, `CCN(CC)C(=O)CN1CCN(c2ccccc2F)CC1`: 0.463. As for `CCCCn1ccnc1C(=O)c1cc(S(=O)(=O)N2CCOCC2)ccc1C`, the figure is -0.0858; as for `N#Cc1c(NC(=S)NC(=O)C2CCCC2)sc2c1CCCCC2`, 0.0233.

Source of the values: PubChem BioAssay AID488969 (Vanderbilt High Throughput Screening Facility, 2010).
